Some of the results follow.
The sequences below were run on PfSIP2 AP2 domain 1 (GST-tagged) (assay: gcPBM binding intensity (ln(normalized median fluorescence intensity)); higher = stronger DNA binding).
In short: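 After 1 h on an Agilent 4 × 180k array of primer-extended double-stranded 36-bp intergenic genomic probes and negative controls, bound GST-tagged P. falciparum DNA-binding domains were detected with Alexa488 anti-GST antibody and scanned at 488 nm. The domains had been expressed in E. coli, and binding took place in 1× PBS with 1% milk, 0.2 mg/ml BSA, 0.5% salmon testes DNA and 0.03% Triton X-100. Binding intensity is the highest Masliner-normalised natural-log median intensity across replicate spots of either probe orientation.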

Row | Sequence | gcPBM binding intensity (ln)
1 | GTAATACACATATAATGTACTCATAAATATATTTAT [XGTACX_site4041] | 7.06
2 | TCATAGGAGAACTTTTGTACAGATTTTTCTTTTTTT [XGTACX_site2853] | 6.51
3 | AATATAAGTGTACATACACACTTTACAATATCATAT [CACACA_site5634] | 7.13
4 | AATTTTATATATATATGTACATATTTATATGCTTAT [XGTACX_site8180] | 7.09
5 | TTTCTATATCTTTCAACACACAAATTTTTTTTTCCA [CACACA_site108] | 6.98
6 | ACATACATACCCCCACGTACGTACCGAAACACCACC [XGTACX_site1982] | 8.09
7 | CAAAGAACTTATAGGGTGCTTTACTTATAAGTAAAT [GTGCAC_site9579] | 8.52
8 | ATAGCACATTTTTAAGCACACGTTTATTATATATAT [CACACA_site6084] | 7.32
9 | CAAAAATATATTTTTTGTACACAAAAAAAAAATAAA [XGTACX_site5229] | 7.27
10 | AAAACTATTAAATGTAGTACATAATTATTGAAATAA [XGTACX_site8716] | 6.93
11 | AAATACATATCATGTAGTACATATATATGTAGGTTA [XGTACX_site5392] | 6.96
12 | TGTTGTATTTTTACAACACACATTTAATCCATTTAA [CACACA_site1507] | 6.79
13 | CTTATATATTGGGATAGTACTTTTAACTAAATAGAA [XGTACX_site5900] | 7.02
14 | ACTTTACGAATTAAGAGTACTTATTTAAGGAACACT [XGTACX_site7919] | 7.08
15 | TTTTTATTGAGATACTTATATAATTTTATGAATAAA [XGTACX_negctrl_site311] | 6.76
16 | TTTTTTTGCTCTTTTTATATATATATATATATATAT [GTGCAC_negctrl_site70] | 8.94
17 | TTTGAAAAGTTGAAATGTACACATTTACACATATTT [XGTACX_site1641] | 6.76
18 | ATCAACATTATGGTTAGTACTTAGTGAATTGTTAAT [XGTACX_site4926] | 7.01
19 | GTGTAATATATTTTTCGTACATATTATATATATATA [XGTACX_site1675] | 8.69
20 | TTATACACCTTTCATTGTACATATAATTTATATTCT [XGTACX_site8685] | 7.35
21 | TCTTCTAATTTACCTACACACAGGAGATATATAAAT [CACACA_site6276] | 7.28
22 | TATATATATATATATTGTACAAAATATTTATATGTT [XGTACX_site436] | 9.43

Row | Sequence | gcPBM binding intensity (ln)
23 | TAATTAATTTATTAGTTGCACTGTACCATTAGAGTA | 8.72
24 | GTTCATAAATTAAACACACACACACCCCTGGATACC [CACACA_site3331] | 7.78
25 | TATATTACTTTGTGTTGTACGGAAATATATATATAT [XGTACX_site4309] | 8.7
26 | AATATTCAATATATATATATATATAATATTAATATA [GTGCAC_negctrl_site571] | 7.29
27 | ATATTTTATTTAATTACACACAATATTGCAATTTGT [CACACA_site669] | 7.12
28 | AAGGATTTTTTATACACACACTAACTAATGTATATA [CACACA_site7163] | 6.91
29 | TAATACCATAACAAGTGTACATAAATAATTATTGTA [XGTACX_site4949] | 7.11
30 | AAAAAAAATATAATATGTACATATCTATATATCAAC [XGTACX_site4881] | 6.99
31 | TATACATATGAAAATACACACATACATACAGATATA [CACACA_site5002] | 7.01
32 | TTGTTTTTAATATCGGTGCAATGGAAAGAAAAGAAG [GTGCAC_site9494] | 9.41
33 | TACGTAAAATAATTGAGTACATAATTATATATATAT [XGTACX_site5361] | 8.92
34 | AAAAATAATCATTAGGTGCAAAAAATATATATATAT [GTGCAC_site9631] | 9.96
35 | TTTTTTTTTTTAAATTCACACAATATATAAATATTG [CACACA_site5201] | 6.84
36 | AACAAATATATATGTAGTACATGTTGTAGATAATTT [XGTACX_site24] | 7
37 | AGAAAAATTATTTTGCGTACATATTTACAATAAAAA [XGTACX_site2144] | 7.05
38 | TTTAAAATATATAGTACACACGTGAACACAAATACA [CACACA_site4392] | 7.13
39 | GTACATTATTTATATACACACAAAGAAAAATATACA [CACACA_site3452] | 7.14
40 | TAAAGCATATTATAAACACACACTGTATAAAGATAT [CACACA_site296] | 6.98
41 | TTTTTCAGAAAAGAAACACACATATTTATATTTATA [CACACA_site7167] | 6.7
42 | TATATGTATATATATTAACACACAAAAAAAAAAAAA [CACACA_site8534] | 7.04
43 | TAAACAAATAAATAAACACACAATATCTGTATTTAT [CACACA_site5978] | 6.83
44 | TAACCTATAATATTCACACACATATAAATATTATAG [CACACA_site6592] | 7.01

From the supplement of paper PMC11417369
